Laboratory results taken from PubChem BioAssay AID686978 (National Center for Advancing Translational Sciences (NCATS), 2013).
The whole screen tested about 420,000 compounds, of which about 64,000 (15%) were called active. This list was built around the results that the source calls inconclusive (neither active nor inactive); the mix of calls is not that of the screen. Calls come from the whole dose curve; as a rule, active = well fitted inhibition curve with a large enough effect; inconclusive = small, poorly fitted or top-dose-only effect; inactive = flat fitted curve, though single readings scatter. Potencies of inconclusive entries are left out as doubtful fits. Peptide text beside a SMILES is read from it. * marks the point of attachment. Cbz = O=C(OCc1ccccc1)*

Experiment: qHTS for Inhibitors of human tyrosyl-DNA phosphodiesterase 1 (TDP1): qHTS in cells in absence of CPT; note: nearly all actives have a fitted effect of over 55% in size
Conditions: DT40 Tdp1-/- hTDP1 cells, no CPT, ATP luminescence, 48 h; activity change, negative = growth inhibition: at 46.2 µM (top of the series) unless noted
Summary of the method: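 Growth of hTDP1-complemented DT40 Tdp1-knockout cells is measured by ATP luminescence after at least 48 hr compound exposure at 37 °C, with DMSO substituting for the 20 nM CPT used in the parallel screen.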
% is set by controls: 0 for no effect and ±100 for the full control effect; potency is the fitted concentration of half-maximal effect; tags give direction and shape of the fitted curve.

Compound	Potency	activity change, negative = growth inhibition
COc1ccccc1CCNC(=O)C(=O)NCC1OCCN1S(=O)(=O)c1ccc([N+](=O)[O-])cc1 (centres undefined)	inconclusive [inhibitor, single point]	–
CCCCc1n[nH]c2c1/C(=N/O)CC(c1ccccc1)C2 (centres undefined)	inconclusive [inhibitor, partial curve, poor fit]	–
CCN(CC)C(=O)C1=C(C)N(CCCN2CCCC2=O)C(=O)C(CC(=O)NC2CCCC2)C1 (centres undefined)	inactive	–
COc1ccc(C(=O)N=C2SC3CS(=O)(=O)CC3N2c2ccc(N(C)C)cc2)cc1OC (centres undefined)	inactive	–
CCSc1ccccc1C(=O)N1CCCC1	inactive	–
CC1CCCN(C(=O)CSc2nnc(-c3c[nH]c4ccccc34)o2)C1 (centres undefined)	inconclusive [inhibitor, single point]	–
Cc1noc(/C=C/c2cccs2)c1S(=O)(=O)N1CCC(C(=O)Nc2ccc(F)c(Cl)c2)CC1	active: 14.6 µM	–
CC1CCN(S(=O)(=O)c2cn(CC(=O)N3CC(C)CC(C)C3)c(=O)c3ccccc23)CC1 (centres undefined)	inconclusive [inhibitor, single point]	–
Cc1ccccc1NC(=O)c1cccc(C(=O)Nc2ccccc2C)n1	inconclusive [inhibitor, single point]	–
COc1ccc(C(F)(F)F)cc1NC(=O)c1sc2nc(-c3cccs3)ccc2c1N	inconclusive [inhibitor, single point]	–
C[C@H](CO)N1C[C@H](C)[C@@H](CN(C)C)Oc2c(NC(=O)CCCCCC(=O)Nc3ccccc3N)cccc2C1=O	inconclusive [inhibitor, single point]	–
CN(C)C=NC(=O)c1cn(-c2ccc(F)cc2)c(=O)c2ccccc12	inconclusive [inhibitor, partial curve]	–
Cc1cnc(C(=O)N(c2ccc(N3CCOCC3)cc2)C2C(=O)Nc3ccccc3N=C2c2ccc(F)cc2)cn1 (centres undefined)	inconclusive [inhibitor, single point]	–
CCOC(=O)C1(Cc2ccc(Cl)cc2)CCN(C(=O)c2cnc(C)cn2)CC1	active: 23.1 µM	–
O=C(Nc1ccc(S(=O)(=O)N2CCOCC2)cc1)c1ccc(Cl)s1	inconclusive [inhibitor, single point]	–
N#C[C@]1(S(=O)(=O)c2ccccc2)C[C@@H]2ON=C(c3cccc(Br)c3)[C@@H]2C1	active: 6.51 µM	–
CCN(CC)c1ccc(C2C(C(=O)Nc3ccccn3)=C(C)NC3=C2C(=O)CC(C)(C)C3)cc1 (centres undefined)	inconclusive [inhibitor, partial curve, poor fit]	–
O=C(c1cnn2ccccc12)N1CCc2ccccc21	inconclusive [inhibitor, partial curve, poor fit]	–
Clc1cc2cccnc2c2ccccc12	inactive	–
COc1ccc(C2CC(=O)c3cc(-c4nc(-c5cccc(Cl)c5)cs4)c(=O)[nH]c3C2)cc1OC (centres undefined)	active: 9.2 µM	–
CCOc1ccc(N2CC(=O)N/C2=N\c2nc(C)cc(C)n2)cc1	inactive	–
Cc1cccc(C)c1NC(=O)C(=O)NCCc1c[nH]c2ccccc12	inconclusive [inhibitor, single point]	–
Cc1nc(NC(=O)c2ccccc2)sc1Cc1ccc2c(c1)OCO2	inconclusive [inhibitor, single point]	–

Compound	Potency	activity change, negative = growth inhibition
COc1ccc(-c2nn(-c3ccccc3)cc2C(=O)NC2CCCCC2C)cc1 (centres undefined)	inconclusive [inhibitor, single point]	–
CCOC(=O)c1ccc(NC(=O)c2c(-c3c(F)cccc3Cl)noc2C)cc1	inconclusive [inhibitor, single point]	–
CCc1n[nH]c(=S)n1/N=C/c1ccc(N(CC)CC)cc1	inconclusive [inhibitor, single point]	–
CN1C(c2ccccc2)CCOS1(=O)=O (centres undefined)	inconclusive [inhibitor, partial curve, poor fit]	–
c1ccc2nc3c(nc2c1)[nH]c1ccccc13	inconclusive [inhibitor, single point]	–
Cc1cccc(N2CCN(c3ncnc4c3nc3n4CCCCC3)CC2)c1C	inconclusive [inhibitor, single point]	–
COc1cccc(C(=O)Nc2cccc(C(=O)OCc3cc(=O)n4nc(C5CC5)sc4n3)c2)c1	active: 3.66 µM	–
COc1ccc(NC(=O)C2CCCN(S(=O)(=O)c3ccccc3)C2)c(OC)c1 (centres undefined)	inconclusive [inhibitor, partial curve]	–
COc1ccc(CCNS(=O)(=O)c2ccc3c(c2)NC(=O)C(C)S3)cc1OC (centres undefined)	–	inconclusive: -33.2% [inhibitor]
Cc1ccc(S(=O)(=O)N2CCOCC2)cc1NC(=O)COC(=O)CCC(=O)c1ccc(F)cc1	inactive	–
CN(C)CCOC1c2ccccc2C=Cc2ccccc21	inactive	–
Nc1c(-c2nc(-c3cccs3)no2)nnn1-c1ccc(Cl)cc1	inactive	–
Cc1nc2cc(C(=O)N3c4ccccc4CC3C)ccc2s1 (centres undefined)	active: 16.4 µM	–
O=C(Cn1cc(C(=O)c2ccco2)c2ccccc21)Nc1ccc(Br)cc1	inconclusive [inhibitor, single point]	–
CC(C)C[C@H](CO)Nc1nc(Nc2cccc(Cl)c2)c2ncn(C(C)C)c2n1	inconclusive [inhibitor, single point]	–
CC1CCN(S(=O)(=O)c2cn(CC(=O)Nc3cccc(C(F)(F)F)c3)c(=O)c3ccccc23)CC1	inconclusive [inhibitor, single point]	–
CCC1(C)Cc2c(sc3nnn(CC(=O)Nc4ccccc4C)c(=O)c23)CO1 (centres undefined)	inconclusive [inhibitor, single point]	–
O=C(CSc1ccccc1)N1CCc2c([nH]c3ccccc23)C1c1ccc(F)cc1 (centres undefined)	inconclusive [inhibitor, single point]	–
COc1cc2c(C(=O)Nc3ccccc3F)cn(C)c(=O)c2cc1OC	inactive	–
CCOC(=O)c1cnn(-c2ccc(C(=O)Nc3cc(OC)c(OC)c(OC)c3)cc2)c1N	inconclusive [inhibitor, partial curve, poor fit]	–
COc1cc([N+](=O)[O-])cc(/C=N/NC(=O)c2cccnc2)c1O	inconclusive [inhibitor, partial curve]	–
Cc1ccccc1-c1nc(CN2CCC(C(=O)NCCC3=CCCCC3)CC2)c(C)o1	active: 18.4 µM	–
O=C(c1ccccc1)N1CCN(c2ccc(NCc3ccc4c(c3)OCO4)cc2)CC1	active: 18.4 µM	–

Compound	Potency	activity change, negative = growth inhibition
O=C(Nc1nnc(COc2ccccc2F)s1)Nc1ccccc1F	active: 20.6 µM	–
COc1ccc(C(O)P(=O)(OC2CCCCC2)c2ccc(N(C)C)cc2)cc1OC (centres undefined)	inactive	–
CCn1c(C(=O)NCCc2ccc(OC)c(OC)c2)cc2sc(Cl)cc21	active: 11.6 µM	–
COc1ccc(NC2c3ccccc3C(=O)N2Cc2ccc3c(c2)OCO3)cc1 (centres undefined)	inconclusive [inhibitor, single point]	–
CC1(c2ccc(Cl)cc2)NC(=O)N(CC(=O)c2ccc3c(c2)OCO3)C1=O (centres undefined)	inactive	–
Cc1ccc(S(=O)(=O)c2cnc(-c3ccccc3)nc2N2CCCCC2)cc1	inconclusive [inhibitor, single point]	–
COc1cccc(NC(=O)c2ccc3nc(CCc4ccccc4)oc3c2)c1	inconclusive [inhibitor, single point]	–
O=C(Nc1ccc(F)cc1)Nc1ccc(N2CCCC2)c(S(=O)(=O)Nc2ccccc2Cl)c1	active: 23.1 µM	–
CC(C)[C@H](NC(=O)N1CCn2c1nc1ccccc12)C(=O)NC1CCCCC1	inactive	–
S=c1[nH]nc(-c2cccc(Cl)c2)n1/N=C/c1ccc(-c2ccccc2Br)o1	inconclusive [inhibitor, single point]	–
CCCCNc1nc(Oc2ccc(OCC)nn2)nc(N2CCOCC2)n1	inconclusive [inhibitor, single point]	–
Cc1noc(C)c1CSc1ccccc1C(=O)Nc1nccs1	inactive	–
COc1ccc(Cl)cc1NC(=O)c1c(NCc2ccc(C)o2)sc2c1CCCCC2	active: 14.6 µM	–
c1ccc2c(NC3CC3)nc(-c3ccoc3)nc2c1	inconclusive [inhibitor, single point]	–
Clc1ccc(CNC23CN4CN(CN(C4)C2)C3)c(Cl)c1	inconclusive [inhibitor, partial curve]	–
CSc1ncc(Cl)c(C(=O)Nc2ccc(NC(C)=O)cc2)n1	inactive	–
COC(=O)C1CCCN1C(=O)C1CCCN1C(=O)CNC(=O)OCc1ccccc1 (stereo not drawn) (Cbz-Gly-Pro-Pro-OMe; configuration not given here)	inconclusive [inhibitor, partial curve]	–
Cc1c(C(=O)N2CCOCC2)cc(C(C)(C)C)n1-c1ccccc1	active: 20.6 µM	–
O=[N+]([O-])c1ccc(N2CCNCC2)cc1Sc1nc2ccccc2[nH]1	active: 23.1 µM	–
O=C(CC(NC(=O)c1ccccc1)c1ccccc1)OCc1nc(-c2cccc(Cl)c2)no1 (centres undefined)	inactive	–
COC(=O)c1ccc(C)c(NC(=O)C(CCSC)NC(=O)c2cc(OC)c(OC)c(OC)c2)c1 (centres undefined)	inactive	–
O=C(Cn1nc2sc3ccccc3n2c(=O)c1=O)c1ccc(Cl)cc1	inactive	–
COc1cc(OC)c(C(=O)NC2CCCc3ccccc32)cc1OC (centres undefined)	inconclusive [inhibitor, single point]	–
